The shares of active, inactive and inconclusive entries below differ from those in the screen. For some assays here: A potency beside an inconclusive call is a rough fit, not a confirmed value. For some assays here: “Side channel” marks fits to a control or component signal instead of the main read-out. The source made the active and inactive calls. Unless noted, calls follow the shape of the dose curve; as a rule, active = well fitted curve in the direction sought with a large enough effect; inconclusive = small, poorly fitted or top-dose-only effect, or another doubt; inactive = no such curve, though single readings can be large; an effect the other way counts as inactive or inconclusive.
Key:
[1] = AP1 Signaling Pathway (AID 357; active = well fitted curve in either direction with a large enough effect, not every such curve was filed as active; inconclusive = small, poorly fitted or top-dose-only effect, or another doubt;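 also: ME-180 reporter cells stimulated with EGF at its EC50 level; top concentration of the series differs between compounds; % is scaled to controls: 0 for no effect and ±100 for the full control effect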); conditions: ME-180 (cervical carcinoma) AP-1-bla reporter, EGF-induced, beta-lactamase ratio, 5 h; at 7.69 µM (top of the series) unless noted
How it was run: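 Beta-lactamase reporter under AP-1 response element, ME-180 background. Stimulus: EC50 EGF. Compound exposure 5 h, 37 °C. Detection: CCF4, 2.5 h RT, 460/530 nm. Values: AC50 from titration.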

[2] = target: Mitogen-activated protein kinase 10 (Mus musculus) (UniProt Q61831); assay: JNK3 AlphaScreen Assay (AID 530; active = well fitted curve in either direction with a large enough effect, not every such curve was filed as active; inconclusive = small, poorly fitted or top-dose-only effect, or another doubt;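 also: kinase came from lysate of stimulated human HepG2 cells; signal reports phosphorylation of biotinylated GST-cJun 1-79 at Ser73 with 10 µM ATP; potency is read from the fitted curve at half-maximal effect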); conditions: JNK3 lysate, c-Jun phosphorylation; activity change, negative = inhibition: at 57.1 µM (top of the series)
How it was run: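 Compound titrations were preincubated 15 minutes at room temperature with substrate, antibody and pre-activated JNK3-containing HepG2 lysate. Reactions were started with 10 uM ATP and stopped with EDTA-containing bead buffer for AlphaScreen detection.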

[3] = qHTS Assay for Identification of Small Molecule Antagonists for NFkB Signaling Pathway (AID 895; active = well fitted inhibition curve with a large enough effect in the signal ratio, with a control signal flat, not every such curve was filed as active; inconclusive = small, poorly fitted or top-dose-only effect, or effect the other way, or a change in a side signal; the % refers to the signal ratio; also: potency is read from the fitted curve at half-maximal effect); conditions: NFkB beta-lactamase reporter cells, FRET ratio 460/530, stimulated with 10 pM TNF alpha; activity change, negative = inhibition: at 38.3 µM (top of the series)
How it was run: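 Beta-lactamase reporter read-out (460 and 530 nm emission ratio, 405 nm excitation, 2 hrs substrate loading RT) after 5 hr stimulation with 10 pM TNF alpha in compound-treated NFkB-bla ME-180 cells in low-serum medium.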

[4] = qHTS Assay for Identification of Small Molecule Agonists for Thrombopoietin (TPO) Signaling Pathway (AID 917); also: potency is read from the fitted curve at half-maximal effect
How it was run: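 We measured Glycoprotein IIb promoter–luciferase output in IL-3-starved Ba/F3 murine cells expressing the human TPO receptor after 24 hrs at 37 C with compounds and 26 pM TPO.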

[5] = target: Pyruvate kinase PKM (Homo sapiens) (UniProt P14618); assay: qHTS Assay for Inhibitors of Human Muscle Pyruvate Kinase (AID 958)
Sequence of UniProt P14618 (P14618 whole entry, looked up): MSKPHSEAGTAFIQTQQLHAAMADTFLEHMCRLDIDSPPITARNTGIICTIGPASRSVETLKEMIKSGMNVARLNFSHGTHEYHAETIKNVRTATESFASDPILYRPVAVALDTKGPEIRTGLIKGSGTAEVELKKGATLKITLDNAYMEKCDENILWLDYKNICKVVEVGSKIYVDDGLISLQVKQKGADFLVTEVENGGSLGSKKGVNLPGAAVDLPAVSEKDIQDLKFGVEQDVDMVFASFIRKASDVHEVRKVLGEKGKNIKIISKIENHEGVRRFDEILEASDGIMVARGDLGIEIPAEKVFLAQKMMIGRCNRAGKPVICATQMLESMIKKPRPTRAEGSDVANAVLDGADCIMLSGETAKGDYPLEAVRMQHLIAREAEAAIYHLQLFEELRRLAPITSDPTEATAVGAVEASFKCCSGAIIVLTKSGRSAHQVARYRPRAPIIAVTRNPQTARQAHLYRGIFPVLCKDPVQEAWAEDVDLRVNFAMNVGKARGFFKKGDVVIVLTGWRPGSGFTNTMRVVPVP
How it was run: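 ATP production by PKM2 detected via luciferase luminescence after 1 h room-temperature reaction (0.1 nM enzyme, PEP at Km 0.5 mM, ADP 0.1 mM, pH 7.2 imidazole buffer). Inhibition scaled to no-enzyme control; activation referenced to 0.3 nM enzyme wells.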

[6] = Validation of Assay for Modulators of Lamin A Splicing (AID 1459; active = well fitted curve in the direction sought with a large enough effect in the signal ratio; inconclusive = small, poorly fitted or top-dose-only effect, or effect the other way, or a change in a side signal; inactive = no such curve, though single readings can be large or run the other way; the % refers to the signal ratio; also: potency is read from the fitted curve at half-maximal effect); conditions: Lamin A splicing dual RFP/GFP fluorescence reporter; Potency: ratio unless noted; ratio change, both ways: at 9.22 µM unless noted
How it was run: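 Splicing correction is reported by an EGFP-containing lamin A minigene in stably transfected S3 HeLa cells, while DsRed2 controls for viability and nonspecific signal. Cells are exposed to compounds for 48 hrs before the GFP over RFP ratio is taken.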

[7] = qHTS Assay for Lipid Storage Modulators (AID 1519; calls by dose curve; also: % is scaled to controls: 0 for no effect and ±100 for the full control effect); conditions: Drosophila S3 cells, BODIPY lipid droplet/cell ratio, laser cytometry, cells loaded with oleic acid; activity change, negative = inhibition: at 57.5 µM (top of the series) unless noted
How it was run: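 Cells seeded at 5,000 per well were treated with compounds over a concentration series and loaded with oleic acid (400 uM, as added). Lipid droplet fluorescence (488 nm excitation, 500-530 nm channel) was read by laser-scanning cytometry and normalized to 20 uM Triacsin C.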

[8] = Counterscreen for APE1 Inhibitors: Fluorescent Dye Displacement Validation Assay (AID 1707); also: potency is read from the fitted curve at half-maximal effect
How it was run: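 Compounds are scored by their ability to displace Thiazole Orange (250 nM) from a 50 nM TAMRA-tagged duplex bearing a tetrahydrofuran abasic site. Buffer is 50 mM Tris-HCl pH7.5, 50mM NaCl, 2 mM MgCl2, 0.01% Tween-20.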

[9] = qHTS for differential inhibitors of proliferation of Plasmodium falciparum line 7G8 (AID 1815);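 also: potency is read from the fitted curve at half-maximal effect; parasite growth measured after three days of incubation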
[10] = qHTS for differential inhibitors of proliferation of Plasmodium falciparum line GB4 (AID 1816); conditions: Potency: Plasmodium falciparum GB4 proliferation inhibition;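 also: potency is read from the fitted curve at half-maximal effect; parasite growth measured after 72 h incubation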
[11] = qHTS for differential inhibitors of proliferation of Plasmodium falciparum line Dd2 (AID 1882); conditions: Potency: Plasmodium falciparum Dd2 proliferation inhibition; also: potency is read from the fitted curve at half-maximal effect; nearly all actives have a fitted effect of over 65% in size
How it was run: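 Dd2-infected erythrocytes (0.3% parasitemia, 2.5% hematocrit final) incubated with compound 72 h at 37 C, 5% CO2; lysed with saponin/Triton buffer containing SYBR Green I, incubated overnight in the dark, then read by fluorescence (485/535 nm). Normalized to 0.29 uM artemisinin and DMSO.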

[12] = target: Ferritin light chain (Equus caballus) (UniProt P02791); assay: qHTS Validation Assay for Identification of Novel General Anesthetics (AID 2323); also: potency is read from the fitted curve at half-maximal effect
How it was run: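 Apoferritin from horse spleen (10 uM) was mixed with 1-aminoanthracene at 50% saturation in PBS, then compounds were added. After 10 min at room temperature, fluorescence was read (ex 380 nm, em 535 nm) and normalized to free-probe and complex controls.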

[13] = target: RecQ-like DNA helicase BLM (Homo sapiens) (UniProt P54132); assay: qHTS Validation Assay for Inhibitors of Bloom's syndrome helicase (BLM) (AID 2364); also: potency is read from the fitted curve at half-maximal effect
How it was run: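 Forked 20-bp duplex substrate (200 nM, TAMRA/BHQ-2) plus 2 mM ATP added after 15 min compound preincubation with 50 nM enzyme, pH 8.0, poly(dI-dC) 2.5 ug/ml. Strand separation followed by fluorescence (525/598 nm) over 2 h, normalized to enzyme-free and DMSO controls.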

[14] = target: DNA polymerase III PolC-type (Bacillus subtilis (strain 168)) (UniProt P13267); assay: qHTS Validation Assay for the Inhibitors of DNA Replication in Gram-Positive Bacteria (AID 485295); also: potency is read from the fitted curve at half-maximal effect
Sequence of UniProt P13267 (P13267 whole entry, looked up): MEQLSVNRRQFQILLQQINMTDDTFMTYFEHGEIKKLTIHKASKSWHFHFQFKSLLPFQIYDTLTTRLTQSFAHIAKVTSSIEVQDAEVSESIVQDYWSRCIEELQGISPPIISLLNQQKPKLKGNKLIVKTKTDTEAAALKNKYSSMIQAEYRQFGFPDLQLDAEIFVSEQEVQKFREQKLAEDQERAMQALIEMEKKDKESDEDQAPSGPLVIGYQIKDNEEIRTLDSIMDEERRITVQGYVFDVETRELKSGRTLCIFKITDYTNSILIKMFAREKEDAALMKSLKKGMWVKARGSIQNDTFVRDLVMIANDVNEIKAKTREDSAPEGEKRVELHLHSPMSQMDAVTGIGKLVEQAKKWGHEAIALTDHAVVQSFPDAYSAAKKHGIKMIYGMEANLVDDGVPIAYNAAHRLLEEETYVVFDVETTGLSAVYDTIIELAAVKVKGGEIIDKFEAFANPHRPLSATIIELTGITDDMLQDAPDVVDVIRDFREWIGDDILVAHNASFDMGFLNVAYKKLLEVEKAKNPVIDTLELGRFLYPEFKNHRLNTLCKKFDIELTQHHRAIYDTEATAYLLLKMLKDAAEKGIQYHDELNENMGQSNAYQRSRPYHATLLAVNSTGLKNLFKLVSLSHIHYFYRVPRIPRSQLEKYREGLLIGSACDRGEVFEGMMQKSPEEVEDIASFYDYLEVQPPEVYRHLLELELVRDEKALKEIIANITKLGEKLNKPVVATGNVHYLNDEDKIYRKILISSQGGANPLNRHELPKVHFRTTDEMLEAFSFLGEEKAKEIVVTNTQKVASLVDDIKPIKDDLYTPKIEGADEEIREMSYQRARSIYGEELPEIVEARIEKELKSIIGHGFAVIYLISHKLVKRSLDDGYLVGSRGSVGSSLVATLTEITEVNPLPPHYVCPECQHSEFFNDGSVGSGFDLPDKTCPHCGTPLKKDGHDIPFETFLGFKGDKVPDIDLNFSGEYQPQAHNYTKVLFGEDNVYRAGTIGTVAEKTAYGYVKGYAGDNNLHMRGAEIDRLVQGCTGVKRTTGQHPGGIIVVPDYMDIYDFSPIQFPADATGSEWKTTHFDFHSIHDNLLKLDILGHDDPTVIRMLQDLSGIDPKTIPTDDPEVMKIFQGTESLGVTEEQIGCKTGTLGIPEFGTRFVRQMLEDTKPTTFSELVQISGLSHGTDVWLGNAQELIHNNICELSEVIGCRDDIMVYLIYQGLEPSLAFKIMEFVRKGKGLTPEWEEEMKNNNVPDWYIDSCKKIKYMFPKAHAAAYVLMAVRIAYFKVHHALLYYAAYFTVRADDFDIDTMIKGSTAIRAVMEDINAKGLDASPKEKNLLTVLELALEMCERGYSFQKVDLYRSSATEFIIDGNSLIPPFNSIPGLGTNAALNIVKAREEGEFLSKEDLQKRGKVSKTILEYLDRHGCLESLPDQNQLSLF
How it was run: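 Primed replication of single-stranded M13Gori by a four-protein B. subtilis holoenzyme is measured at room temperature. Double-stranded product is quantified by PicoGreen fluorescence after an EDTA stop; inhibition is scaled between DMSO and EDTA controls.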

[15] = target: ATP-dependent 6-phosphofructokinase (Trypanosoma brucei brucei) (UniProt O15648); assay: qHTS Validation Assay to Find Inhibitors of T. brucei phosphofructokinase (AID 485368); also: potency is read from the fitted curve at half-maximal effect
Sequence of UniProt O15648 (O15648 whole entry, looked up): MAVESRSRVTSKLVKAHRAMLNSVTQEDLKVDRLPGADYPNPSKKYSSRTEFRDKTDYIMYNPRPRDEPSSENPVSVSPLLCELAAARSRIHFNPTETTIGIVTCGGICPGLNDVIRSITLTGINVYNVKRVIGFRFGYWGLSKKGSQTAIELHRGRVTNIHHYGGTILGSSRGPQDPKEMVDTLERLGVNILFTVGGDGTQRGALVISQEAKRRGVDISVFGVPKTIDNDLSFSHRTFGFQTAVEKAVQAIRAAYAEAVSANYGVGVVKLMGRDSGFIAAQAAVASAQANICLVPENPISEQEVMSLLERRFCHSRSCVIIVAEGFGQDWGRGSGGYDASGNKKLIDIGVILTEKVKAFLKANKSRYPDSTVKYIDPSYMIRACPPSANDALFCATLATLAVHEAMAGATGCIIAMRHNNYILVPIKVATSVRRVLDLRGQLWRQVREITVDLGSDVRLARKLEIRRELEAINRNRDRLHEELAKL
How it was run: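 Steps: substrate mix (0.5 mM F6P, 0.1 mM ATP, MgCl2, TEA pH 8.0); compound; 1.25 nM T. brucei PFK; 45 min RT; ATP depletion 10 min; ADP-to-ATP detection 10 min; luminescence read; curve fitting and classification.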

[16] = Quantitative high throughput screen for delayed death inhibitors of the malarial parasite plastid, 48 hour incubation (AID 488752); also: % is scaled to controls: 0 for no effect and ±100 for the full control effect; nearly all actives have a fitted effect of over 65% in size
How it was run: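 Readout is firefly luciferase luminescence from a reporter integrated into the parasite genome, with lower signal taken as inhibited growth. Infected red cells (0.1% parasitemia, 2% hematocrit final) are cultured with compound for one 48 h cycle at 37 C.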

[17] = target: Chromobox protein homolog 1 (Homo sapiens) (UniProt P83916); assay: qHTS Validation Assay for Inhibitors of HP1-beta Chromodomain Interactions with Methylated Histone Tails (AID 488953); also: potency is read from the fitted curve at half-maximal effect; nearly all actives have a fitted effect of over 50% in size
Sequence of UniProt P83916 (P83916 whole entry, looked up): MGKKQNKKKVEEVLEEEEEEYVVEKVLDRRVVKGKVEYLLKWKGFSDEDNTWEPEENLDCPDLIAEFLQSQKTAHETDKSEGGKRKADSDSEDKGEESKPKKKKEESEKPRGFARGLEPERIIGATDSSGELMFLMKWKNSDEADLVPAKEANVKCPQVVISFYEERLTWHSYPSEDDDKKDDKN
How it was run: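 50 nM HP1-beta + 50 nM biotin-H3(1-18)K9me3, PBS pH 7.4, 0.01% Tween-20, 30 min RT; compound added, 30 min RT; AlphaScreen beads 10 ug/mL final, 30 min dark; luminescence read.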

[18] = Validation screen for small molecules that induce DNA re-replication in SW480 colon adenocarcinoma cells (AID 504364); also: potency is read from the fitted curve at half-maximal effect
How it was run: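 250 cells/well; compound pinned in; 48 hr, 37 C, 5% CO2; Hoechst added, 40 min; nuclear fluorescence imaged, 405 ex / 500-530 em; re-replication scored as increase in high-intensity nuclei.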

[19] = target: Peptidyl-prolyl cis-trans isomerase NIMA-interacting 1 (Homo sapiens) (UniProt Q13526); assay: qHTS Validation Assay to Find Inhibitors of Pin1 (AID 504536; active = well fitted inhibition curve with a large enough effect in the polarisation, with a control signal flat, not every such curve was filed as active; inconclusive = small, poorly fitted or top-dose-only effect, or effect the other way; the % refers to the polarisation; also: potency is read from the fitted curve at half-maximal effect)
Sequence of UniProt Q13526 (Q13526 whole entry, looked up): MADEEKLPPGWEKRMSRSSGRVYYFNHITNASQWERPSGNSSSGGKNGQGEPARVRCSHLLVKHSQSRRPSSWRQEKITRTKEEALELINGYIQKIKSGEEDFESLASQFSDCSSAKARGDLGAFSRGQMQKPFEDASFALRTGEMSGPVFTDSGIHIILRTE
How it was run: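 Fluorescence polarization competition: compounds (titration) displace HiFluor-488-labeled Pin1-1b peptide from Pin1 (0.3 uM final) in pH 7.5 HEPES buffer with DTT, 10 min at room temperature; %Activity normalized to no-enzyme wells, curves fitted.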

[20] = target: Phosphoglycerate kinase, glycosomal (Trypanosoma brucei brucei) (UniProt P07378); assay: qHTS Validation Assay to Find Inhibitors of Phosphoglycerate Kinase (AID 504547); conditions: enzymatic PGK inhibition, coupled luminescence read-out; also: potency is read from the fitted curve at half-maximal effect
How it was run: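 Inhibition of the enzyme is judged by a Kinase-Glo Plus luminescent signal following a one-hour incubation at room temperature. Because 1,3-BPG is unstable, it is made in situ by GAPDH at 100nM final; no-PGK wells define the baseline.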

[21] = target: Glutaminase kidney isoform, mitochondrial (Homo sapiens) (UniProt O94925); assay: qHTS for Inhibitors of Glutaminase (GLS): LOPAC Validation (AID 624146); also: potency is read from the fitted curve at half-maximal effect; nearly all actives have a fitted effect of over 60% in size
Sequence of UniProt O94925 (O94925 whole entry, looked up, canonical isoform): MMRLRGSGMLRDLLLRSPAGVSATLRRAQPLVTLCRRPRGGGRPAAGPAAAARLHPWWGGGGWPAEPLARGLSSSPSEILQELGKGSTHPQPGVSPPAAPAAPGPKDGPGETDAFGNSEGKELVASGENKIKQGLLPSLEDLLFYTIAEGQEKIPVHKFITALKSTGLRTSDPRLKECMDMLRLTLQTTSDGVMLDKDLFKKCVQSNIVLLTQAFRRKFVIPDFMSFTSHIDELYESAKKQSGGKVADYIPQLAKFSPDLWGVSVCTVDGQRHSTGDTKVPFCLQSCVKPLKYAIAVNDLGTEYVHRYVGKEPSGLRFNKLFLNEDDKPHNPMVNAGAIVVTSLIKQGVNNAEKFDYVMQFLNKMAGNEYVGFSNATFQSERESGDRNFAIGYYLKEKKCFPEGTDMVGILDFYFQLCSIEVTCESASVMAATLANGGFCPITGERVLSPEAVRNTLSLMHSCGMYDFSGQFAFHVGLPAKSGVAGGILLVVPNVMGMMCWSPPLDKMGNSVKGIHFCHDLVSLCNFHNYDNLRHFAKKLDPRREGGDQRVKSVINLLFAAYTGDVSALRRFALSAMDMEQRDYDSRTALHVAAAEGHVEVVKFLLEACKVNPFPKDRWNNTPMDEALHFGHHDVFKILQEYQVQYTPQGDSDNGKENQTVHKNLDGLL
How it was run: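 Enzyme dispensed in phosphate buffer (45 mM, pH 8.2, 0.02% Tween-20), compounds pinned in, then 1 mM L-glutamine solution and the glutamate oxidase–HRP–Amplex Red mix added; fluorescence read immediately and again after 30 min at room temperature.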

[22] = target: Lysine-specific demethylase 5B (Homo sapiens) (UniProt Q9UGL1); assay: Optimization screen for KDM5B Histone Demethylases FDH coupled qHTS against the LOPAC library (AID 1347166); conditions: KDM5B demethylation, FDH-coupled NADH fluorescence (FDH is formaldehyde dehydrogenase); activity, negative = inhibition: at 57.5 µM (top of the series) unless noted; also: potency is read from the fitted curve at half-maximal effect
Sequence of UniProt Q9UGL1 (Q9UGL1 whole entry, looked up): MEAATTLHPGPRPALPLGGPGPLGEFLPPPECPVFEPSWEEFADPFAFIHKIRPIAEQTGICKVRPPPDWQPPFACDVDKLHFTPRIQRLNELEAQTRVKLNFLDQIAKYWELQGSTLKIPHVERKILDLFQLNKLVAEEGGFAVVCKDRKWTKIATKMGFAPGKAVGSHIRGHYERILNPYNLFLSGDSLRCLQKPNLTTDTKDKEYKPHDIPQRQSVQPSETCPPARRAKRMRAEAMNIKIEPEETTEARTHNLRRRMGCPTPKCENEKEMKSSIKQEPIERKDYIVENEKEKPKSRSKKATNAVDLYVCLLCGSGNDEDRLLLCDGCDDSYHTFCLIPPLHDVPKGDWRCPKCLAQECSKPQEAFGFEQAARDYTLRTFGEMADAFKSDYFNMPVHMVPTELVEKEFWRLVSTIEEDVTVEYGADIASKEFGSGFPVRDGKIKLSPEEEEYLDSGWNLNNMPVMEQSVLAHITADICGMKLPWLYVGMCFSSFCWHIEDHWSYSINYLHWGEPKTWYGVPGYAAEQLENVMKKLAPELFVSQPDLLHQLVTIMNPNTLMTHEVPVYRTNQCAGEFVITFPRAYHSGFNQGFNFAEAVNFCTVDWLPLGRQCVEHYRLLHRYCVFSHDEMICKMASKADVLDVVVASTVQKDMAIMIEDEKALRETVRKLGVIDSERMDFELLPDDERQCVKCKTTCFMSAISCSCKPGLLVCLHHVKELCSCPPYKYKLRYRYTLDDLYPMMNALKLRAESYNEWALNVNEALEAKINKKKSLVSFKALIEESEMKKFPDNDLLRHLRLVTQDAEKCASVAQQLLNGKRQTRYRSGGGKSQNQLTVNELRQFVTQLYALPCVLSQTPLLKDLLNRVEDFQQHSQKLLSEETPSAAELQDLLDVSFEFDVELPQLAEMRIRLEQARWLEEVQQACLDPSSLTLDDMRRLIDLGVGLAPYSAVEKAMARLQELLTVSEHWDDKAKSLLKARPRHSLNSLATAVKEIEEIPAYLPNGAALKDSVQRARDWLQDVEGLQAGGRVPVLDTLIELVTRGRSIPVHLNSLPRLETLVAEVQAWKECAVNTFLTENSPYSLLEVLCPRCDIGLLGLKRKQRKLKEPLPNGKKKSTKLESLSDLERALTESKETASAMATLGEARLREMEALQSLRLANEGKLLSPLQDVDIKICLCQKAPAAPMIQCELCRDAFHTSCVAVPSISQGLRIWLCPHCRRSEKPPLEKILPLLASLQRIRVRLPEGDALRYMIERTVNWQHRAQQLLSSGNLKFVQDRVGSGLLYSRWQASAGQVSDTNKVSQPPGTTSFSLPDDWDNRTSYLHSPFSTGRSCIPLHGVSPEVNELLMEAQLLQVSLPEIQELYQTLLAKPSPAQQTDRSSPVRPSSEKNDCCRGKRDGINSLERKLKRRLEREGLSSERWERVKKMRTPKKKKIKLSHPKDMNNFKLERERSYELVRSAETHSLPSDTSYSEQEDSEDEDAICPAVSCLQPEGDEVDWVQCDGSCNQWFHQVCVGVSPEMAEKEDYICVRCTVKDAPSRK
How it was run: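 KDM5BDeltaAP (200nM final) preincubated 10 min with compound, then 12.5uM H3K4Me3, 25uM a-ketoglutarate, ascorbate, Fe(II), NAD+ and FDH added; 50mM HEPES pH 7.5, 0.01% Tween-20. NADH fluorescence (340/450 nm) change over 30 min, room temperature.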

[23] = Primary qHTS for small molecule stabilizers of the endoplasmic reticulum resident proteome: Secreted ER Calcium Modulated Protein (SERCaMP) assay (AID 1508630); conditions: SH-SY5Y GLuc-SERCaMP (Gaussia luciferase released on ER calcium loss) secretion, thapsigargin, luminescence; activity change, negative = inhibition: at 38.4 µM (top of the series) unless noted; also: potency is read from the fitted curve at half-maximal effect
How it was run: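 GLuc-SERCaMP-expressing SH-SY5Y cells, pretreated 16 h with compound, are challenged with thapsigargin to empty ER calcium stores; after 4 h, coelenterazine is added directly to the medium and luminescence is imaged.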
Tags tell the direction and shape of the fitted curve or compound fluorescence and quenching.

N#C/C(=C\c1c[nH]c2ccccc12)C(=O)c1ccc(O)c(O)c1
inconclusive: activity change, negative = inhibition [1] -49.8% [inhibitor] [at 38 µM] | Potency [2] 15.8 µM [inhibitor, partial curve, poor fit] | Potency [3] 11.2 µM [cytotoxic, side channel] | Potency [4] 3.16 µM [inhibitor, partial curve] | Potency [5] 20 µM [inhibitor, partial curve] | Potency [6] 35.5 µM [inhibitor, single point] | activity change, negative = inhibition [7] 1.32% | Potency [8] 4.47 µM [inhibitor, full curve] | Potency [9] 10 µM [inhibitor, single point] | Potency [11] 17.8 µM [inhibitor, single point] | Potency [12] 17.8 µM [inhibitor, full curve] | Potency [14] 21.2 µM [inhibitor, single point] | Potency [15] 21.3 µM [falling, partial curve] | Potency [18] 29.1 µM [activator, single point] | Potency [19] 4.78 µM [quencher, side channel, partial curve, poor fit] | Potency [20] 37.9 µM [inhibitor, single point] | Potency [22] 12.6 µM [inhibitor, partial curve, poor fit] | Potency [23] 31.6 µM [inhibitor, partial curve, poor fit]
inactive: Potency [16]
active: Potency [10] 12.6 µM | Potency [13] 11.2 µM | Potency [17] 3.55 µM | Potency [21] 1.12 µM
